Source: the supplement of paper PMC8728848
The other results are listed elsewhere or left out.

Assays:
Assay in all cases: glycan array binding signal (z-score within array); higher = stronger binding
Settings in all cases: glycan notation: IUPAC condensed, linker removed
[1] = molecular target: GlcNAc(b1-3)Gal(b1-4)GlcNAc(b1-3)Gal(b1-4)GlcNAc(b1-3)GalNAc
Outline: (§1)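 Columns mapping to the same glycan were averaged after glycan names were converted to IUPAC-condensed notation. The data come from 3228 arrays in the Consortium for Functional Glycomics database, limited to those with an available protein sequence. Binding is reported as a within-array Z-score averaged across arrays of one protein sequence and across linkers.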

[2] = molecular target: GlcNAc(b1-3)Gal(b1-4)GlcNAc(b1-3)GalNAc
Outline: as §1

[3] = molecular target: GlcNAc(b1-3)Gal(b1-4)GlcNAc(b1-3)[GlcNAc(b1-3)Gal(b1-4)GlcNAc(b1-3)]GalNAc
Outline: as §1

[4] = molecular target: GlcNAc(b1-3)Gal(b1-4)GlcNAc(b1-6)[Gal(b1-3)]GalNAc
Outline: as §1

[5] = molecular target: GlcNAc(b1-3)Gal(b1-4)GlcNAc(b1-6)[GlcNAc(b1-3)Gal(b1-3)]GalNAc
Outline: as §1

[6] = molecular target: GlcNAc(b1-3)Gal(b1-4)GlcNAc(b1-6)[GlcNAc(b1-3)]Gal(b1-4)GlcNAc
Outline: as §1

GlcNAc(b1-3)GalNAc = molecular target: GlcNAc(b1-3)GalNAc
Outline: as §1

GlcNAc(b1-3)Man = molecular target: GlcNAc(b1-3)Man
Outline: as §1

[7] = molecular target: GlcNAc(b1-3)[GlcNAc(b1-4)][GlcNAc(b1-6)]GlcNAc
Outline: as §1

[8] = molecular target: GlcNAc(b1-3)[GlcNAc(b1-6)]Gal(b1-4)GlcNAc
Outline: as §1

[9] = molecular target: GlcNAc(b1-3)[GlcNAc(b1-6)]GalNAc
Outline: as §1

[10] = molecular target: GlcNAc(b1-4)Gal(b1-4)GlcNAc
Outline: as §1

GlcNAc(b1-4)GlcNAc = molecular target: GlcNAc(b1-4)GlcNAc
Outline: as §1

[11] = molecular target: GlcNAc(b1-4)GlcNAc(b1-4)GlcNAc
Outline: as §1

[12] = molecular target: GlcNAc(b1-4)GlcNAc(b1-4)GlcNAc(b1-4)GlcNAc(b1-4)GlcNAc
Outline: as §1

[13] = molecular target: GlcNAc(b1-4)GlcNAc(b1-4)GlcNAc(b1-4)GlcNAc(b1-4)GlcNAc(b1-4)GlcNAc
Outline: as §1

[14] = molecular target: GlcNAc(b1-4)[GlcNAc(b1-6)]GalNAc
Outline: as §1

[15] = molecular target: GlcNAc(b1-6)Gal(b1-4)GlcNAc
Outline: as §1

GlcNAc(b1-6)GalNAc = molecular target: GlcNAc(b1-6)GalNAc
Outline: as §1

[16] = molecular target: GlcNAc6S(b1-3)Gal(b1-4)GlcNAc
Outline: as §1

Kdn(a2-3)Gal(b1-3)GalNAc = molecular target: Kdn(a2-3)Gal(b1-3)GalNAc
Outline: as §1

Kdn(a2-3)Gal(b1-3)GlcNAc = molecular target: Kdn(a2-3)Gal(b1-3)GlcNAc
Outline: as §1

Kdn(a2-3)Gal(b1-4)Glc = molecular target: Kdn(a2-3)Gal(b1-4)Glc
Outline: as §1

Kdn(a2-3)Gal(b1-4)GlcNAc = molecular target: Kdn(a2-3)Gal(b1-4)GlcNAc
Outline: as §1

[17] = molecular target: Kdn(a2-3)Gal(b1-4)[Fuc(a1-3)]GlcNAc
Outline: as §1

Kdn(a2-6)Gal(b1-4)GlcNAc = molecular target: Kdn(a2-6)Gal(b1-4)GlcNAc
Outline: as §1

[18] = molecular target: Man(a1-2)Man(a1-2)Man(a1-3)Man
Outline: as §1

[19] = molecular target: Man(a1-2)Man(a1-2)Man(a1-6)[Man(a1-3)]Man
Outline: as §1

Man(a1-2)Man(a1-3)Man = molecular target: Man(a1-2)Man(a1-3)Man
Outline: as §1

[20] = molecular target: Man(a1-2)Man(a1-3)[Man(a1-2)Man(a1-6)]Man
Outline: as §1

[21] = molecular target: Man(a1-2)Man(a1-3)[Man(a1-2)Man(a1-6)]Man(a1-6)[Man(a1-2)Man(a1-2)Man(a1-3)]Man
Outline: as §1

[22] = molecular target: Man(a1-2)Man(a1-3)[Man(a1-2)Man(a1-6)]Man(a1-6)[Man(a1-2)Man(a1-2)Man(a1-3)]Man(b1-4)GlcNAc(b1-4)GlcNAc
Outline: as §1

[23] = molecular target: Man(a1-2)Man(a1-3)[Man(a1-6)]Man(a1-6)[Man(a1-2)Man(a1-3)]Man(b1-4)GlcNAc(b1-4)GlcNAc
Outline: as §1

[24] = molecular target: Man(a1-2)Man(a1-6)[Man(a1-3)]Man(a1-6)[Man(a1-2)Man(a1-2)Man(a1-3)]Man
Outline: as §1

[25] = molecular target: Man(a1-2)Man(a1-6)[Man(a1-3)]Man(a1-6)[Man(a1-2)Man(a1-2)Man(a1-3)]Man(b1-4)GlcNAc(b1-4)GlcNAc
Outline: as §1

Man(a1-3)[Man(a1-6)]Man = molecular target: Man(a1-3)[Man(a1-6)]Man
Outline: as §1

[26] = molecular target: Man(a1-3)[Man(a1-6)]Man(a1-6)[Man(a1-2)Man(a1-3)]Man(b1-4)GlcNAc(b1-4)GlcNAc
Outline: as §1

[27] = molecular target: Man(a1-3)[Man(a1-6)]Man(a1-6)[Man(a1-3)]Man
Outline: as §1

[28] = molecular target: Man(a1-3)[Man(a1-6)]Man(a1-6)[Man(a1-3)]Man(b1-4)GlcNAc(b1-4)GlcNAc
Outline: as §1

[29] = molecular target: Man(a1-3)[Man(a1-6)]Man(b1-4)GlcNAc(b1-4)GlcNAc
Outline: as §1

[30] = molecular target: Man(a1-3)[Man(a1-6)]Man(b1-4)GlcNAc(b1-4)[Fuc(a1-6)]GlcNAc
Outline: as §1

Man(a1-6)Man = molecular target: Man(a1-6)Man
Outline: as §1

Man(b1-4)GlcNAc = molecular target: Man(b1-4)GlcNAc
Outline: as §1

MurNAc(b1-4)GlcNAc = molecular target: MurNAc(b1-4)GlcNAc
Outline: as §1

Neu5Ac(a2-3)Gal = molecular target: Neu5Ac(a2-3)Gal
Outline: as §1

B1: Pwp2 (Candida glabrata) (protein)
chain: MGSSHHHHHHSSGLVPRGSHMASKNPVELNNVCTFPNDYGRIPGFTVLVGRLGLLISASDYKELLRYPGAFLIATQDTMTTSPNFELTGFPFFTGLYGLTVFPLDLLVELRGYFVPPNSGQYTFTLSDSDDAAIIFLGNPSAFPCGDLQNWPKPSEEDITVTDHLFPSRTLYLIEGVAYPMRIAYYNGIGAGRLNAAFIDPSGTRHTNWEGYIWQYDPCSTCTYS
glycan array binding signal (z-score) [1]: -0.545 | glycan array binding signal (z-score) [2]: -0.267 | glycan array binding signal (z-score) [3]: 0.5 | glycan array binding signal (z-score) [4]: 0.49 | glycan array binding signal (z-score) [5]: -0.518 | glycan array binding signal (z-score) [6]: -0.459 | glycan array binding signal (z-score) (GlcNAc(b1-3)GalNAc): -0.337 | glycan array binding signal (z-score) (GlcNAc(b1-3)Man): -0.38 | glycan array binding signal (z-score) [7]: -0.623 | glycan array binding signal (z-score) [8]: -0.141 | glycan array binding signal (z-score) [9]: -0.005 | glycan array binding signal (z-score) [10]: -0.446 | glycan array binding signal (z-score) (GlcNAc(b1-4)GlcNAc): -0.503 | glycan array binding signal (z-score) [11]: 0.164 | glycan array binding signal (z-score) [12]: -0.475 | glycan array binding signal (z-score) [13]: 1.65 | glycan array binding signal (z-score) [14]: -0.585 | glycan array binding signal (z-score) [15]: -0.113 | glycan array binding signal (z-score) (GlcNAc(b1-6)GalNAc): 0.84 | glycan array binding signal (z-score) [16]: -0.468 | glycan array binding signal (z-score) (Kdn(a2-3)Gal(b1-3)GalNAc): 0.472 | glycan array binding signal (z-score) (Kdn(a2-3)Gal(b1-3)GlcNAc): -0.284 | glycan array binding signal (z-score) (Kdn(a2-3)Gal(b1-4)Glc): 2.39 | glycan array binding signal (z-score) (Kdn(a2-3)Gal(b1-4)GlcNAc): 0.176 | glycan array binding signal (z-score) [17]: 1.8 | glycan array binding signal (z-score) (Kdn(a2-6)Gal(b1-4)GlcNAc): 0.09 | glycan array binding signal (z-score) [18]: 0.082 | glycan array binding signal (z-score) [19]: 0.12 | glycan array binding signal (z-score) (Man(a1-2)Man(a1-3)Man): -0.465 | glycan array binding signal (z-score) [20]: -0.477 | glycan array binding signal (z-score) [21]: -0.722 | glycan array binding signal (z-score) [22]: 2.68 | glycan array binding signal (z-score) [23]: -0.572 | glycan array binding signal (z-score) [24]: -0.407 | glycan array binding signal (z-score) [25]: -0.467 | glycan array binding signal (z-score) (Man(a1-3)[Man(a1-6)]Man): -0.513 | glycan array binding signal (z-score) [26]: -0.412 | glycan array binding signal (z-score) [27]: 5.45 | glycan array binding signal (z-score) [28]: 0.106 | glycan array binding signal (z-score) [29]: 0.07 | glycan array binding signal (z-score) [30]: -0.046 | glycan array binding signal (z-score) (Man(a1-6)Man): -0.485 | glycan array binding signal (z-score) (Man(b1-4)GlcNAc): -0.694 | glycan array binding signal (z-score) (MurNAc(b1-4)GlcNAc): -0.475 | glycan array binding signal (z-score) (Neu5Ac(a2-3)Gal): 0.433
